Results published in article PMC10531988.
Read-outs that look alike come from different tables or passages of the source. Results are given in words; binding and its absence hold for the method and conditions named. In cells and extracts the contact can be indirect. Some entries that bind do so weakly or less than the wild type. For some assays here: Where a sequence is shown, tags or fusion partners need not be part of it.

Sequences of proteins named here, by UniProt entry; tags and fusion partners are left off. A change or cut given only in a name is not applied to a line headed by its entry.
UniProt Q9NXV2: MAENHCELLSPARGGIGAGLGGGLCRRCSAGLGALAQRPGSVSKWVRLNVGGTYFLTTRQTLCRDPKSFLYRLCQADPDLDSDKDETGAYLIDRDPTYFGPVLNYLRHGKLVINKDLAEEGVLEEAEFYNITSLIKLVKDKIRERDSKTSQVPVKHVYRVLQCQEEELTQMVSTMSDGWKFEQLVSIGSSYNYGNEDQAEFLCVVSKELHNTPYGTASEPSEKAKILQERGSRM
UniProt Q6ZWB6: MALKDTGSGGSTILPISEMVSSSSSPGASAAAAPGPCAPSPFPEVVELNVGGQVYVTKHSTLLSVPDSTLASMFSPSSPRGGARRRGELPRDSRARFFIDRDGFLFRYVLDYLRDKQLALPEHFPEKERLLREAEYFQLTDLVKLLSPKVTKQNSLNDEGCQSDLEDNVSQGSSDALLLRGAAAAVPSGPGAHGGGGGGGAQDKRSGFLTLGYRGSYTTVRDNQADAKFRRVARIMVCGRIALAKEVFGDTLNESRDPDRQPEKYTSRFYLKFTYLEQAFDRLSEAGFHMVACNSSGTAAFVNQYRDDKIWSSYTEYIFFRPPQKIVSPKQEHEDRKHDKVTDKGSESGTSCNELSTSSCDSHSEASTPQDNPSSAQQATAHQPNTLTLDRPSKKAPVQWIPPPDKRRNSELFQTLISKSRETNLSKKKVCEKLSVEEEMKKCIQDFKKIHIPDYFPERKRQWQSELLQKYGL
UniProt Q14681: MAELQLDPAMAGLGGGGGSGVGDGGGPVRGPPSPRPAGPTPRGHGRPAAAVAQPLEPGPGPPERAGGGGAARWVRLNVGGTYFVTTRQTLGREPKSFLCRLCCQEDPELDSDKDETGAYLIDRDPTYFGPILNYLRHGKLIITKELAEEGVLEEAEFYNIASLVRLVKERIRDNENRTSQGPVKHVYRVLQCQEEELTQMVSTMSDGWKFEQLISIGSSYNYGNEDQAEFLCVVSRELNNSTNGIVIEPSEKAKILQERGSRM
UniProt Q96CX2: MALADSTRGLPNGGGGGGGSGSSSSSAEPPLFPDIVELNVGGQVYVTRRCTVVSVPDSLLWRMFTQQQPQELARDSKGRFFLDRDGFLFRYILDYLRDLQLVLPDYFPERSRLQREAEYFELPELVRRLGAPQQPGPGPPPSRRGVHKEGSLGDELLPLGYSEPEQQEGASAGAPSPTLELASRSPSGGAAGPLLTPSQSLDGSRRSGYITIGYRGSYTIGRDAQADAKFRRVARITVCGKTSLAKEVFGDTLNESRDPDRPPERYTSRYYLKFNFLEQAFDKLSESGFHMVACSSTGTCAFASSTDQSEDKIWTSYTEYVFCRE
UniProt Q8N5Z5: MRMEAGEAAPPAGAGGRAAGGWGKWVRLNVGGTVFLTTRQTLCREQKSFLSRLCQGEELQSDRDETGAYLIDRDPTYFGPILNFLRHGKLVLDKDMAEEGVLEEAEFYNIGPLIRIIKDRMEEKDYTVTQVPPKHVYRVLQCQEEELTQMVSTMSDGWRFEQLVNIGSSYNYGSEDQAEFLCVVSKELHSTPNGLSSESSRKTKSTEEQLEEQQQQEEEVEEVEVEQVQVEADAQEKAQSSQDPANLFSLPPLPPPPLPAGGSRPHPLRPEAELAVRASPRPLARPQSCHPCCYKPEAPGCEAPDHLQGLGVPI
UniProt Q68DU8: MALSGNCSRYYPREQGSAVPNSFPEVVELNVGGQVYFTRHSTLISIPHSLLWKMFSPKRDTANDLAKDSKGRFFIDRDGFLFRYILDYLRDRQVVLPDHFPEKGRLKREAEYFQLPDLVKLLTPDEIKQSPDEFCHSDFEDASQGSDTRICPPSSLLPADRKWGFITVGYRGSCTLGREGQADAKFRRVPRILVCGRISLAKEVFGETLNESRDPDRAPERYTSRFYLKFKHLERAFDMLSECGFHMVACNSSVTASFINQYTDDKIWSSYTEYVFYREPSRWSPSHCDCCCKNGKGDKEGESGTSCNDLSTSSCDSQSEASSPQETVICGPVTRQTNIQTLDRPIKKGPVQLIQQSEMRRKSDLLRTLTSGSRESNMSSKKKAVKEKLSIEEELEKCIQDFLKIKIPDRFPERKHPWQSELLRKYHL

T1: KCTD9-myc-flag (human) (UniProt Q7L273)
T1 sequence: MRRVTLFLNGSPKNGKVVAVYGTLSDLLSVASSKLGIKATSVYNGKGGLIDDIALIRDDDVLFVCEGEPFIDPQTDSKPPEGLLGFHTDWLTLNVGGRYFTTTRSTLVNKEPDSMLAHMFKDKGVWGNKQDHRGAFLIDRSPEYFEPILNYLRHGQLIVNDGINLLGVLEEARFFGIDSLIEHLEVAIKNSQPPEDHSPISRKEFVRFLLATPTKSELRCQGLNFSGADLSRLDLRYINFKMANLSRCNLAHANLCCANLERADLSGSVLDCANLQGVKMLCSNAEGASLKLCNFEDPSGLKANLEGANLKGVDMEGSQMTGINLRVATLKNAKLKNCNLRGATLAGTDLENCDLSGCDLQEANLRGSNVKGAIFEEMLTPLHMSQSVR


Tests used:
[1] = molecular target: Venus-ΔN (KCTD5 with AA 1–39 deleted, Venus fused to the N-terminus) (human) (UniProt Q9NXV2); test: co-IP; HEK293 cells co-transfected 1:1; lysate (1% Triton-X, 150 mM NaCl); IP of Venus-tagged KCTD5 or its fragments with anti-GFP antibody and Dynabeads Protein G, 2 h, +4 °C; Western blot with anti-myc antibody
[2] = molecular target: Venus-FL (full-length KCTD5 with Venus fused to the N-terminus) (human) (UniProt Q9NXV2); test: as above
KCTD5-Venus (human) [3] = molecular target: KCTD5-Venus (human) (UniProt Q9NXV2); test: as above
[4] = molecular target: Venus-BTB (KCTD5 BTB domain AA 40–151, Venus fused to the N-terminus) (human) (UniProt Q9NXV2); test: as above
KCTD8-myc-flag (human) = KCTD8-myc-flag (human) (UniProt Q6ZWB6); test: co-IP; IP-luminescence: HEK293 cells co-transfected 1:1 with Nluc-KCTD5 constructs and KCTD-myc-flag; lysate; IP with anti-DYKDDDDK magnetic agarose, 2 h, +4 °C; luminescence of the IP divided by that of the total lysate
KCTD2-myc-flag (human) = KCTD2-myc-flag (human) (UniProt Q14681); test: as above
KCTD12-myc-flag (human) = KCTD12-myc-flag (human) (UniProt Q96CX2); test: as above
KCTD5-myc-flag (human) = KCTD5-myc-flag (human) (UniProt Q9NXV2); test: as above
KCTD17-myc-flag (human) = KCTD17-myc-flag (human) (UniProt Q8N5Z5); test: as above
KCTD16-myc-flag (human) = KCTD16-myc-flag (human) (UniProt Q68DU8); test: as above
KCTD9-myc-flag (human) = molecular target: T1, KCTD9-myc-flag (human); test: as above
KCTD5-Venus (human) [5] = molecular target: KCTD5-Venus (human) (UniProt Q9NXV2); test: co-IP; HEK293 cells co-transfected 1:1; lysate (1% Triton-X, 150 mM NaCl); IP of Venus-tagged KCTD5 or its fragments with anti-GFP antibody and Dynabeads Protein G, 2 h, +4 °C; Western blot with anti-myc antibody; remark: listed apart in the source

Row | Molecule | binding (KCTD8-myc-flag (human)) | binding (KCTD2-myc-flag (human)) | binding (KCTD12-myc-flag (human)) | binding (KCTD5-myc-flag (human)) | binding (KCTD17-myc-flag (human)) | binding (KCTD16-myc-flag (human)) | binding (KCTD5-Venus (human) [5]) | further results
1 | KCTD5-myc-flag (from UniProt Q9NXV2 1-234) |  |  |  |  |  |  |  | binding [1]: binds; binding [2]: binds; binding (KCTD5-Venus (human) [3]): binds; binding [4]: binds
2 | Nluc-CT (KCTD5 C-terminal AA 149–234, N-terminal Nanoluciferase) (from UniProt Q9NXV2 149-234) (domain or fragment) | binds | no binding | binds |  | no binding | binds |  | 
3 | TNFAIP1-myc-flag (protein, UniProt Q13829 1-316) MSGDTCLCPASGAKPKLSGFKGGGLGNKYVQLNVGGSLYYTTVRALTRHDTMLKAMFSGRMEVLTDKEGWILIDRCGKHFGTILNYLRDDTITLPQNRQEIKELMAEAKYYLIQGLVNMCQSALQDKKDSYQPVCNIPIITSLKEEERLIESSTKPVVKLLYNRSNNKYSYTSNSDDHLLKNIELFDKLSLRFNGRVLFIKDVIGDEICCWSFYGQGRKLAEVCCTSIVYATEKKQTKVEFPEARIYEETLNVLLYETPRVPDNSLLEATSRSRSQASPSEDEETFELRDRVRRIHVKRYSTYDDRQLGHQSTHRD |  |  |  |  |  |  | no binding | 
4 | KCTD19-myc-flag (protein, UniProt Q17RG1 1-926) MEESGMAHESAEDLFHFNVGGWHFSVPRSKLSQFPDSLLWKEASALTSSESQRLFIDRDGSTFRHVHYYLYTSKLSFSSCAELNLLYEQALGLQLMPLLQTLDNLKEGKHHLRVRPADLPVAERASLNYWRTWKCISKPSEFPIKSPAFTGLHDKAPLGLMDTPLLDTEEEVHYCFLPLDLVAKYPSLVTEDNLLWLAETVALIECECSEFRFIVNFLRSQKILLPDNFSNIDVLEAEVEILEIPALTEAVRWYRMNMGGCSPTTCSPLSPGKGARTASLESVKPLYTMALGLLVKYPDSALGQLRIESTLDGSRLYITGNGVLFQHVKNWLGTCRLPLTETISEVYELCAFLDKRDITYEPIKVALKTHLEPRTLAPMDVLNEWTAEITVYSPQQIIKVYVGSHWYATTLQTLLKYPELLSNPQRVYWITYGQTLLIHGDGQMFRHILNFLRLGKLFLPSEFKEWPLFCQEVEEYHIPSLSEALAQCEAYKSWTQEKESENEEAFSIRRLHVVTEGPGSLVEFSRDTKETTAYMPVDFEDCSDRTPWNKAKGNLVRSNQMDEAEQYTRPIQVSLCRNAKRAGNPSTYSHCRGLCTNPGHWGSHPESPPKKKCTTINLTQKSETKDPPATPMQKLISLVREWDMVNCKQWEFQPLTATRSSPLEEATLQLPLGSEAASQPSTSAAWKAHSTASEKDPGPQAGAGAGAKDKGPEPTFKPYLPPKRAGTLKDWSKQRTKERESPAPEQPLPEASEVDSLGVILKVTHPPVVGSDGFCMFFEDSIIYTTEMDNLRHTTPTASPQPQEVTFLSFSLSWEEMFYAQKCHCFLADIIMDSIRQKDPKAITAKVVSLANRLWTLHISPKQFVVDLLAITGFKDDRHTQERLYSWVELTLPFARKYGRCMDLLIQRGLSRSVSYSILGKYLQED |  |  |  |  |  |  | no binding | 
5 | KCTD7-myc-flag (protein, UniProt Q96MP8 1-289) MVVVTGREPDSRRQDGAMSSSDAEDDFLEPATPTATQAGHALPLLPQEFPEVVPLNIGGAHFTTRLSTLRCYEDTMLAAMFSGRHYIPTDSEGRYFIDRDGTHFGDVLNFLRSGDLPPRERVRAVYKEAQYYAIGPLLEQLENMQPLKGEKVRQAFLGLMPYYKDHLERIVEIARLRAVQRKARFAKLKVCVFKEEMPITPYECPLLNSLRFERSESDGQLFEHHCEVDVSFGPWEAVADVYDLLHCLVTDLSAQGLTVDHQCIGVCDKHLVNHYYCKRPIYEFKITWW |  |  |  |  |  |  | no binding | 
6 | KCTD9-myc-flag (protein, UniProt Q7L273 1-389) MRRVTLFLNGSPKNGKVVAVYGTLSDLLSVASSKLGIKATSVYNGKGGLIDDIALIRDDDVLFVCEGEPFIDPQTDSKPPEGLLGFHTDWLTLNVGGRYFTTTRSTLVNKEPDSMLAHMFKDKGVWGNKQDHRGAFLIDRSPEYFEPILNYLRHGQLIVNDGINLLGVLEEARFFGIDSLIEHLEVAIKNSQPPEDHSPISRKEFVRFLLATPTKSELRCQGLNFSGADLSRLDLRYINFKMANLSRCNLAHANLCCANLERADLSGSVLDCANLQGVKMLCSNAEGASLKLCNFEDPSGLKANLEGANLKGVDMEGSQMTGINLRVATLKNAKLKNCNLRGATLAGTDLENCDLSGCDLQEANLRGSNVKGAIFEEMLTPLHMSQSVR |  |  |  |  |  |  | no binding | 
7 | KCTD11-myc-flag (protein, UniProt Q693B1 1-232) MLGAMFRAGTPMPPNLNSQGGGHYFIDRDGKAFRHILNFLRLGRLDLPRGYGETALLRAEADFYQIRPLLDALRELEASQGTPAPTAALLHADVDVSPRLVHFSARRGPHHYELSSVQVDTFRANLFCTDSECLGALRARFGVASGDRAEGSPHFHLEWAPRPVELPEVEYGRLGLQPLWTGGPGERREVVGTPSFLEEVLRVALEHGFRLDSVFPDPEDLLNSRSLRFVRH |  |  |  |  |  |  | no binding | 

Further lines, with some results ahead:

Row | binding (KCTD8-myc-flag (human)) | binding (KCTD2-myc-flag (human)) | binding (KCTD12-myc-flag (human)) | binding (KCTD5-myc-flag (human)) | binding (KCTD17-myc-flag (human)) | binding (KCTD16-myc-flag (human)) | binding (KCTD5-Venus (human) [5]) | Molecule | further results
8 | no binding | binds | no binding | binds | binds | binds |  | Nluc-BTB (KCTD5 BTB domain AA 40–151, N-terminal Nanoluciferase) (from UniProt Q9NXV2 40-151) (domain or fragment) | 
9 | binds | binds | no binding | binds | binds | binds |  | Nluc-FL (full-length KCTD5 with N-terminal Nanoluciferase) (from UniProt Q9NXV2 1-234) | binding (KCTD9-myc-flag (human)): no binding
10 | binds | binds | no binding | binds | binds |  |  | Nluc-ΔN (KCTD5 with AA 1–39 deleted, N-terminal Nanoluciferase) (from UniProt Q9NXV2 40-234) (domain or fragment) | 
